Like-named read-outs stand apart in the source and are kept apart here.
Tests used:
[1] = tested on: C. thermarum ε6A mutant ε subunit (εR116A, εH117A, εK118A, εR119A, εR123A, εR127A; εK109C, Cy3-labelled); experiment: ATP binding assay (Cy3 maleimide fluorescence), ε6A mutant ε subunit; design: species or system Caldalkalibacillus thermarum TA2.A1; conditions: any pH tested (7.0, 7.5, 8.0, 8.5)
Protocol: The C. thermarum ε subunits were labeled as decribed previously in Krah et al., 2021 ([Krah et al., 2021]). Both ε subunit samples were desalted with a PD Minitrap™ G-25 (GE Healthcare) equilibrated with 50 mM HEPES-NaOH (pH 6.5) and 100 mM NaCl. TCEP was added in a 5:1 protein molar ratio to the ε subunit samples and they were incubated for 2 h at 25°C. Cy3 maleimide in dimethylsulfoxide (DMSO) was then added in a 5:1 dye to protein molar ratio and the mixture incubated for a further 2 h at 25°C. temperature. Excess dye was removed with the same centrifuge column equilibrated with 50 mM HEPES-KOH (pH 7.5), 100 mM KCl, 10 mM MgCl2. Labeling was subsequently analyzed by SDS-PAGE and Cy3 maleimide labeling detected by imaging the unstained gel with an Amersham Typhoon Imaging System (GE Healthcare). […]
ATP binding was detected via fluorescence using a Synergy 2 Microplate Reader (Biotek). Cy3 maleimide fluorescence was measured at 22°C during ATP binding to either C. thermarum ε subunit or the ε6A variant, in a system with an excitation filter of 530 nm (25 nm bandwidth) and an emission filter at 590 nm (35 nm bandwidth). […] Fluorescence was measured for 30–60 s at 1.66 Hz followed by an injection of concentrated 5 µL ATP in the same buffer. […] Fluorescence was measured over the course of the experimental observation window for 6 min at 1.66 Hz.

[2] = molecular target: C. thermarum ε subunit (WT, εK109C, Cy3-labelled) (Caldalkalibacillus thermarum, UniProt F5LA71, K109C); assay type: binding, Caldalkalibacillus thermarum TA2.A1; conditions: for Kd: Kd (ATP binding), equimolar Mg2+, .4 μM Cy3-labelled ε subunit, hyperbolic 1-site fitting, 22°C
Protocol: The C. thermarum ε subunits were labeled as decribed previously in Krah et al., 2021 ([Krah et al., 2021]). Both ε subunit samples were desalted with a PD Minitrap™ G-25 (GE Healthcare) equilibrated with 50 mM HEPES-NaOH (pH 6.5) and 100 mM NaCl. TCEP was added in a 5:1 protein molar ratio to the ε subunit samples and they were incubated for 2 h at 25°C. Cy3 maleimide in dimethylsulfoxide (DMSO) was then added in a 5:1 dye to protein molar ratio and the mixture incubated for a further 2 h at 25°C. temperature. Excess dye was removed with the same centrifuge column equilibrated with 50 mM HEPES-KOH (pH 7.5), 100 mM KCl, 10 mM MgCl2. Labeling was subsequently analyzed by SDS-PAGE and Cy3 maleimide labeling detected by imaging the unstained gel with an Amersham Typhoon Imaging System (GE Healthcare). Gels were subsequently stained with SimplyBlue™ SafeStain (Invitrogen).
ATP binding was detected via fluorescence using a Synergy 2 Microplate Reader (Biotek). Cy3 maleimide fluorescence was measured at 22°C during ATP binding to either C. thermarum ε subunit or the ε6A variant, in a system with an excitation filter of 530 nm (25 nm bandwidth) and an emission filter at 590 nm (35 nm bandwidth). Each reaction mixture contained 800 nM labeled ε subunit in 50 mM MOPS-Tris buffer (either pH 7.0, 7.5, 8.0, 8.5), 100 mM KCl and equimolar MgCl2:ATP in a final volume of 195 µL. Fluorescence was measured for 30–60 s at 1.66 Hz followed by an injection of concentrated 5 µL ATP in the same buffer. […] Fluorescence was measured over the course of the experimental observation window for 6 min at 1.66 Hz.

In the case of `Nc1ncnc2c1ncn2[C@@H]1O[C@H](COP(=O)(O)OP(=O)(O)OP(=O)(O)O)[C@@H](O)[C@H]1O` [ATP], the ATP binding [1] is reported as “did not bind any measurable ATP”, the Kd ([2]; pH 7.0) is reported as 20.2 mM and the Kd ([2]; pH 7.5) is reported as 16.5 mM. For the same compound, the Kd ([2]; pH 8.0) was 4.9 mM, the Kd ([2]; pH 8.5) was 3.4 mM and the “decrease of affinity of the ε subunit for ATP” value ([2]; intracellular pH drops to 7.8 (see Figure 4D)) was roughly 40%. The “change of binding affinity between pH 7.0 and pH 8.5” value ([2]; pH 7.0 (weakest) to pH 8.5 (strongest)) was 5.9 fold.

Reference: paper PMC10010621, “ATP binding by an F1Fo ATP synthase ε subunit is pH dependent, suggesting a diversity of ε subunit functional regulation in bacteria” (Frontiers in Molecular Biosciences, 2023)
